In the supplement of paper PMC8007513:
Structures can show the parent of a compound that is named as a salt. ± gives the standard error. The campaign covered roughly 1,300 compounds. About 75 (6%) showed an effect of 50% or more. The list shows a part of the results.

System: Trichoderma virens ATCC 9645
Experiment: growth yield (OD600) relative to untreated control; higher = less growth inhibition
Conditions: compound concentration: 100 uM
Procedure, shortened: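 Library compounds (100 μM final), with or without a co-applied biocide (200 ng ml^−1), were added to 100 μl aliquots of Trichoderma virens ATCC 9645 spores at 15,000 spores ml^−1 in potato dextrose broth. Cultures were grown at 30 °C in 96-well plates, and OD600 was measured at 40 h and 72 h. Each growth value is a mean of duplicate screens, expressed relative to the control with neither agent.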

Row | SMILES | growth yield (40 h) | growth yield (72 h)
1 | CCOC(=O)[C@H](CCc1ccccc1)N[C@H]1CCc2ccccc2N(CC(=O)O)C1=O [Benazepril hydrochloride] | 104 ± 3.5% | 105 ± 2.1%
2 | COC1=C(OC)C(=O)C(CCCCCCCCCCO)=C(C)C1=O [Idebenone] | 80.7 ± 4.5% | 86.6 ± 3.1%
3 | CCOC(=O)OC(C)OC(=O)[C@@H]1N2C(=O)[C@@H](NC(=O)[C@H](N)c3ccccc3)[C@H]2SC1(C)C (stereo not given in full) [Bacampicillin hydrochloride] | 102 ± 4% | 99.3 ± 6%
4 | CC(COc1ccccc1)N(CCCl)Cc1ccccc1 (stereo not given) [Phenoxybenzamine hydrochloride] | 104 ± 4.6% | 103 ± 4.2%
5 | CCCNC(C)C(=O)Nc1ccccc1C (stereo not given) [Prilocaine hydrochloride] | 106.1 ± 0.95% | 105.4 ± 0.73%
6 | COc1ccc(CN(CCN(C)C)c2ccccn2)cc1 [Pyrilamine maleate] | 101 ± 1.1% | 103 ± 1.5%
7 | CC(=O)c1ccc(S(=O)(=O)NC(=O)NC2CCCCC2)cc1 [Acetohexamide] | 104 ± 4% | 101 ± 3.5%
8 | CCCCC[C@H](O)/C=C/[C@@H]1[C@@H](C/C=C\CCCC(=O)O)[C@@H](O)C[C@H]1O [Dinoprost trometamol] | 101% | 100%
9 | CCOC(=O)c1ccc(OC(=O)CCCCCNC(=N)N)cc1 [Gabexate mesilate] | 76.6 ± 4.5% | 76 ± 3.7%
10 | CCCN[C@H]1CCc2nc(N)sc2C1 [Pramipexole dihydrochloride] | 103 ± 2.1% | 99.84 ± 0.63%
11 | Cc1cc(=O)oc2cc(O)ccc12 [Hymecromone] | 101 ± 0.32% | 97.01 ± 0.94%
12 | Cn1c(=O)c2nc[nH]c2n(C)c1=O [Theophylline monohydrate] | 96.1 ± 1.4% | 95.4 ± 1.3%
13 | C=C1c2cccc(O)c2C(=O)C2=C(O)[C@]3(O)C(=O)C(C(N)=O)=C(O)[C@@H](N(C)C)[C@@H]3[C@@H](O)[C@H]12 [Methacycline hydrochloride] | 84.7 ± 1.4% | 72.05 ± 0.1%
14 | c1ccc(C2CN3CCSC3=N2)cc1 (stereo not given) [Tetramisole hydrochloride] | 102 ± 2.7% | 104 ± 1.6%
15 | Cc1scc2c1N(C(=O)CN1CCN(C)CC1)c1ccccc1NC2=O [Telenzepine dihydrochloride] | 99.75 ± 0.32% | 103 ± 1.1%
16 | Oc1ccc(OCc2ccccc2)cc1 [Monobenzone] | 48.6 ± 0.64% | 53.3 ± 1.7%
17 | C[C@H]1C[C@H]2[C@@H]3CCC4=CC(=O)C=C[C@]4(C)[C@@]3(F)[C@@H](O)C[C@]2(C)[C@@]1(O)C(=O)CO [Betamethasone] | 99.75 ± 0.32% | 103 ± 1.5%
18 | COC(=O)Nc1nc2ccc(SC(C)C)cc2[nH]1 [Methiazole] | 87% | 112 ± 7.2%
19 | Cc1ccc(Cl)c(Nc2ccccc2C(=O)O)c1Cl [Meclofenamic acid sodium salt monohydrate] | 81.64 ± 0.64% | 87.26 ± 0.21%
20 | C=C1/C(=C\C=C2/CCC[C@]3(C)[C@@H]([C@H](C)/C=C/[C@@H](O)C4CC4)CC[C@@H]23)C[C@@H](O)C[C@@H]1O [Calcipotriene] | 110 ± 16% | 105 ± 13%
21 | O=C(NCCO[N+](=O)[O-])c1cccnc1 [Nicorandil] | 102.9 ± 0.32% | 102 ± 4.2%
22 | CCN1CCN(C(=O)N[C@@H](C(=O)N[C@@H]2C(=O)N3C(C(=O)O)=C(CSc4nnnn4C)CS[C@H]23)c2ccc(O)cc2)C(=O)C1=O [Cefoperazone dihydrate] | 101 ± 0.95% | 103 ± 2.2%

Row | SMILES | growth yield (40 h) | growth yield (72 h)
23 | CN(C)CCOc1ccc(/C(=C(/CCCl)c2ccccc2)c2ccccc2)cc1 [Toremifene] | 3.81 ± 0.32% | 2.73 ± 0.21%
24 | CC(C(=O)O)c1ccc(N2Cc3ccccc3C2=O)cc1 (stereo not given) [Indoprofen] | 88.3 ± 2.2% | 82.5 ± 1.1%
25 | CC1=Nc2ccc(Cl)cc2S(=O)(=O)N1 [Diazoxide] | 107 ± 2.4% | 105 ± 2.9%
26 | CCn1nc(C(=O)O)c(=O)c2cc3c(cc21)OCO3 [Cinoxacin] | 94.7 ± 7.3% | 89.8 ± 3.1%
27 | Cc1cc(/C=C/c2ccc3cc(N(C)C)ccc3[n+]2C)c(C)n1-c1ccccc1 [Pyrvinium pamoate] | 124 ± 20% | 114 ± 12%
28 | COCCOC(=O)C1=C(C)NC(C)=C(C(=O)OC/C=C/c2ccccc2)C1c1cccc([N+](=O)[O-])c1 (stereo not given) [Cilnidipine] | 84.3 ± 13% | 86.6 ± 8.2%
29 | CCCCNc1ccc(C(=O)OCCOCCOCCOCCOCCOCCOCCOCCOCCOC)cc1 [Benzonatate] | 92.1 ± 2.5% | 89.1 ± 2.1%
30 | O=C(O)/C=C/c1ccc(Cn2ccnc2)cc1 [Ozagrel hydrochloride] | 110 ± 9.5% | 106 ± 5.1%
31 | CCCc1nc(C)c2c(=O)nc(-c3cc(S(=O)(=O)N4CCN(CC)CC4)ccc3OCC)[nH]n12 [Vardenafil] | 112 ± 4.6% | 105 ± 3.9%
32 | O=C(O)COC(=O)Cc1ccccc1Nc1c(Cl)cccc1Cl [Aceclofenac] | 94.2 ± 2.1% | 95.02 ± 0.42%
33 | Cc1cnc(NC(=O)C2=C(O)c3ccccc3S(=O)(=O)N2C)s1 [Meloxicam] | 85.3 ± 4% | 93.55 ± 0.21%
34 | Cc1nnc(NS(=O)(=O)c2ccc(N)cc2)s1 [Sulfamethizole] | 100.4 ± 0.32% | 99.74 ± 0.1%
35 | CCN1CCC[C@H]1CNC(=O)c1c(OC)ccc(Br)c1OC [Remoxipride Hydrochloride] | 101 ± 1.9% | 101.8 ± 0.94%
36 | CCN1CCN(c2cc3c(cc2F)c(=O)c(C(=O)O)cn3C2CC2)CC1 [Enrofloxacin] | 97.5 ± 8.6% | 95.2 ± 7.3%
37 | CO/N=C(\C(=O)N[C@@H]1C(=O)N2C(C(=O)O)=C(COC(N)=O)CS[C@H]12)c1ccco1 [Cefuroxime sodium salt] | 96.9 ± 2.9% | 89.9 ± 1.1%
38 | O=C(NCC(O)CO)c1c(I)c(C(=O)NCC(O)CO)c(I)c(N(CCO)C(=O)CO)c1I (stereo not given) [Ioversol] | 101 ± 5.4% | 98.1 ± 2.8%
39 | Nc1ccc(S(=O)(=O)Nc2ccnn2-c2ccccc2)cc1 [Sulfaphenazole] | 94.19 ± 0.79% | 92.29 ± 0.84%
40 | CC1Cc2ccccc2N1NC(=O)c1ccc(Cl)c(S(N)(=O)=O)c1 (stereo not given) [Indapamide] | 107 ± 1.8% | 105.7 ± 0.42%
41 | Cc1cc(CC(=O)O)n(C)c1C(=O)c1ccc(Cl)cc1 [Zomepirac sodium salt] | 93.7 ± 5.7% | 88 ± 3.9%
42 | O=C1CC2(CCCC2)CC(=O)N1CCCCN1CCN(c2ncccn2)CC1 [Buspirone hydrochloride] | 104.4 ± 0.16% | 102.2 ± 0.52%
43 | CC[C@H]1OC(=O)[C@H](C)[C@@H](O[C@H]2C[C@@](C)(OC)[C@@H](O)[C@H](C)O2)[C@H](C)[C@@H](O[C@@H]2O[C@H](C)C[C@H](N(C)C)[C@H]2O)[C@](C)(O)C[C@@H](C)[C@@H]2N[C@@H](COCCOC)O[C@H]([C@H]2C)[C@]1(C)O [Dirithromycin] | 99.1 ± 2.2% | 99 ± 3.4%
44 | C[C@H](O)C(=O)Nc1c(I)c(C(=O)NC(CO)CO)c(I)c(C(=O)NC(CO)CO)c1I [Iopamidol] | 100 ± 5.1% | 97 ± 2.4%

Row | SMILES | growth yield (40 h) | growth yield (72 h)
45 | CC(C)CC(=O)N[C@H](C(=O)N[C@H](C(=O)N[C@@H](CC(C)C)[C@@H](O)CC(=O)N[C@@H](C)C(=O)N[C@@H](CC(C)C)[C@@H](O)CC(=O)O)C(C)C)C(C)C [Pepstatin A] | 106 ± 5.4% | 102 ± 7.8%
46 | Nc1nc2n[nH]nc2c(=O)[nH]1 [Azaguanine-8] | 3.49 ± 0.95% | 2.62 ± 0.1%
47 | CN(C)c1nc(N(C)C)nc(N(C)C)n1 [Altretamine] | 97.37 ± 0.79% | 95.02 ± 0.63%
48 | CC(C)NCC(O)c1ccc2ccccc2c1 (stereo not given) [Pronethalol hydrochloride] | 98.6 ± 2.1% | 99.3 ± 2%
49 | C[C@H]1C[C@@H]2[C@H]([C@@H](O)C[C@@]3(C)[C@H]2CC[C@]3(O)C(=O)CO)[C@@]2(C)C=CC(=O)C=C12 [Methylprednisolone, 6-alpha] | 101.3 ± 0.64% | 103.3 ± 0.52%
50 | NC(=O)C(c1ccccc1)(c1ccccc1)[C@@H]1CCN(CCc2ccc3c(c2)CCO3)C1 [Darifenacin hydrobromide] | 111 ± 6.3% | 105 ± 6.7%
51 | CCCNCC(O)COc1ccccc1C(=O)CCc1ccccc1 (stereo not given) [Propafenone hydrochloride] | 103 ± 4.6% | 106 ± 3.5%
52 | COc1ccccc1OCC(O)CN1CCN(CC(=O)Nc2c(C)cccc2C)CC1 (stereo not given) [Ranolazine] | 101.5 ± 0.79% | 99.4 ± 1.3%
53 | COc1cc([C@@H]2c3cc4c(cc3[C@@H](O[C@@H]3O[C@@H]5CO[C@@H](C)O[C@H]5[C@H](O)[C@H]3O)[C@H]3COC(=O)[C@H]23)OCO4)cc(OC)c1O [Etoposide] | 96.1 ± 3% | 97 ± 2.8%
54 | O=S(=O)(O)c1cc(O)ccc1O [Ethamsylate] | 99.9 ± 4.6% | 98.8 ± 3.6%
55 | c1ccc([C@H]2CN3CCSC3=N2)cc1 [Levamisole hydrochloride] | 102.5 ± 0.79% | 102 ± 3.2%
56 | CCC(=O)O[C@]1(C(=O)CCl)[C@@H](C)C[C@H]2[C@@H]3CCC4=CC(=O)C=C[C@]4(C)[C@@]3(F)[C@@H](O)C[C@@]21C [Clobetasol propionate] | 105 ± 4% | 102 ± 2.9%
57 | O=C1OCCN1/N=C/c1ccc([N+](=O)[O-])o1 [Furazolidone] | 84.3 ± 7.2% | 87.7 ± 5.9%
58 | COc1c2occc2c(OC)c2c(=O)cc(C)oc12 [Khellin] | 97.7 ± 1.8% | 95.1 ± 5.1%
59 | Nc1cc(C(Cl)=C(Cl)Cl)c(S(N)(=O)=O)cc1S(N)(=O)=O [Clorsulon] | 104 ± 1.3% | 104 ± 1.7%
60 | CC[C@H](C)C(=O)O[C@H]1CCC=C2C=C[C@H](C)[C@H](CC[C@@H]3C[C@@H](O)CC(=O)O3)[C@H]21 [Mevastatin] | 103 ± 7.6% | 96.2 ± 6.6%
61 | C[C@H](CCC(=O)O)[C@H]1CC[C@H]2[C@@H]3[C@H](O)C[C@@H]4C[C@H](O)CC[C@]4(C)[C@H]3CC[C@]12C [Chenodiol] | 91 ± 4.6% | 94.7 ± 3.5%
62 | CN1CCN(c2c(F)cc3c(=O)c(C(=O)O)cn(CCF)c3c2F)CC1 [Fleroxacin] | 94.5 ± 4% | 92.6 ± 2%
63 | CC(=O)OCC(CCn1cnc2cnc(N)nc21)COC(C)=O [Famciclovir] | 102 ± 3.3% | 99.8 ± 2.5%
64 | NNc1nncc2ccccc12 [Hydralazine hydrochloride] | 100.7 ± 0.32% | 98.4 ± 1.7%
65 | CN1CCN(CCCN2c3ccccc3Sc3ccc(Cl)cc32)CC1 [Prochlorperazine dimaleate] | 31 ± 8.7% | 108 ± 2.4%
